Reference: PMC4336329 (PLoS ONE, 2015)
Hit rate of the full screen: of about 310,000 compounds, about 14,000 (4.5%) showed an effect of 50% or more. Effects have a minus sign here. The list shows a part of the results.

target: human ether-à-go-go-related gene (hERG) potassium channel (human, UniProt Q12809); assay: primary screen, population patch clamp on CHO cells stably expressing hERG
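Note: peak tail current of the secondary pulse compared with the same well before compound.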

human ether-à-go-go-related gene (hERG) potassium channel, sequence (Q12809 whole entry, looked up): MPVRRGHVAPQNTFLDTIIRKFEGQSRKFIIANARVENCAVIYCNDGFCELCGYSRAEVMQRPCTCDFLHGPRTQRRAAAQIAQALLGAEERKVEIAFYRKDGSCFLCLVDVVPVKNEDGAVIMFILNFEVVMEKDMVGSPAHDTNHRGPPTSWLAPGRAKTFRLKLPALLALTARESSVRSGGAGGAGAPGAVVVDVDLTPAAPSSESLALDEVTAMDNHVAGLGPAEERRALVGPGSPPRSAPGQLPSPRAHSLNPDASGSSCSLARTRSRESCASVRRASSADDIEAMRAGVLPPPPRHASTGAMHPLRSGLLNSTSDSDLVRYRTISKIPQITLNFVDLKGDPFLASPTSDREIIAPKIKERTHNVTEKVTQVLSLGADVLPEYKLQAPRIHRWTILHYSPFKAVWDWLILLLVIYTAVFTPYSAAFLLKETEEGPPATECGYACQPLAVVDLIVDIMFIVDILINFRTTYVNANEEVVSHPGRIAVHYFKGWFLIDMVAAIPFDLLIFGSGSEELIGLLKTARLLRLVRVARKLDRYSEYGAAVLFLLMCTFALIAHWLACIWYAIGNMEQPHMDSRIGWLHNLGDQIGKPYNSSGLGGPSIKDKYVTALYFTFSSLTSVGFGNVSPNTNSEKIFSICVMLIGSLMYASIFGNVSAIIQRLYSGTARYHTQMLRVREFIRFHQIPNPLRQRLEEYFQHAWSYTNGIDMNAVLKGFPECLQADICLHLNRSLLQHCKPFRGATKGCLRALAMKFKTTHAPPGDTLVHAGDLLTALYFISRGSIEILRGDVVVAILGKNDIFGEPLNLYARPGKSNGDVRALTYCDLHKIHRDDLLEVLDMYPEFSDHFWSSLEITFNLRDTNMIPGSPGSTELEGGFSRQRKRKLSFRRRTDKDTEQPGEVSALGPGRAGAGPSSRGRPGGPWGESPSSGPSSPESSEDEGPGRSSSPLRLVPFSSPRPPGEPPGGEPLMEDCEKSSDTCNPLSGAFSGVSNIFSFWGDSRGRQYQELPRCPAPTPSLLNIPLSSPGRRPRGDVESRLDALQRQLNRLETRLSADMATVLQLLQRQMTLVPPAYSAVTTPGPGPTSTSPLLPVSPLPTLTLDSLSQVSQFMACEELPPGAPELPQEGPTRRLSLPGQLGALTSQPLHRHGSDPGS

Compared with `O=C(CN1CCN(C(=O)C2CCC2)CC1)Nc1ccc(F)cc1`, `CCS(=O)(=O)N1CCN(C(=O)CCC2CCCC2)CC1` is higher in “hERG current change (%, negative = inhibition) at 10uM” value: -69.9% for the first, 4.65% for the second.

First: CCCCCCCCN1[C@@H](CC(=O)OCC)c2cc(F)ccc2S1(=O)=O
Second: COC(=O)CCCCCCCCC(=O)Nc1nc2ccccc2s1
The “hERG current change (%, negative = inhibition) at 10uM” value of the first is lower: -9.32% for the first, 0.783% for the second.

First: CC#CC[N+](C)(C)CCCCCC.[Cl-]
Second: CCN(CC)C(=O)CSc1nnc(CCNC(=O)OC(C)(C)C)o1
The “hERG current change (%, negative = inhibition) at 10uM” value of the first is higher: 7.73% for the first, 4.13% for the second.

First: CCOC(=O)C1=NN(c2ccc(OC)cc2)C(c2ccccc2)CC1=O (centres unmarked)
Second: CC1(C)OC(=O)N(c2ccccc2)C12C=Cc1c(ccc3ccccc13)O2 (centres unmarked)
The “hERG current change (%, negative = inhibition) at 10uM” value of the first is lower: -5.25% for the first, 10% for the second.

Going from `COc1cccc(C(C)NC(=O)Nc2cc(Cl)ccc2OC)c1` (centres unmarked) to `COc1cccc(CC(=O)Nc2nc(C)cs2)c1`, the “hERG current change (%, negative = inhibition) at 10uM” value falls from 17.5% to 8.16%.

Going from `COC(=O)c1ccc(N=NNc2ccc(C(=O)OC)cc2)cc1` to `COc1ccc(CC(=O)NCC(=O)N/N=C/c2ccc(C)o2)cc1`, the “hERG current change (%, negative = inhibition) at 10uM” value falls from 14.9% to -5.57%.

Going from `CC(C)CCn1c(O)c(N=NC(=O)Cn2ccc(C(F)(F)F)n2)c2ccccc21` to `Cn1c(C(=O)NCCCN2CCOCC2)cc2c(=O)n(C)c3ccccc3c21`, the “hERG current change (%, negative = inhibition) at 10uM” value rises from -4.34% to 2.83%.

First: CC(C)(C)NC(=O)C(=O)NNC(=O)c1ccccc1Br
Second: CCOC(=O)c1[nH]c2ccccc2c1NC(=O)c1nonc1C
The “hERG current change (%, negative = inhibition) at 10uM” value of the first is higher: 6.41% for the first, -10.3% for the second.

First: Cc1cccc2c1N(CCCOc1ccc(C(C)(C)C)cc1)C(=O)C2=O
Second: COc1ccc(N(CC(=O)Nc2ccc(C)cc2C)S(=O)(=O)c2ccccc2[N+](=O)[O-])c(OC)c1
The “hERG current change (%, negative = inhibition) at 10uM” value of the first is higher: 2.36% for the first, -24.9% for the second.

Compared with `CCOC(=O)c1sc(NC(=O)CCN2CCN(CC)CC2)c(C(=O)OCC)c1C`, `CCSc1nnc(NC(=O)CCN2C(=O)C3CCCCC3C2=O)s1` (centres unmarked) is higher in “hERG current change (%, negative = inhibition) at 10uM” value: -88.9% for the first, -11.9% for the second.

First: Cc1ccc(C)c(C(=O)n2cnnc2N)c1
Second: Cc1ccc2c(c1)cc1c(=O)[nH]ncn12
The “hERG current change (%, negative = inhibition) at 10uM” value of the first is higher: 6.51% for the first, 2.1% for the second.

Going from `Cn1c(CNC(=O)c2ccc3c(c2)OCO3)nnc1SCC(=O)Nc1ccc(F)cc1F` to `CCOC(=O)CSc1nnc(CNC(=O)c2ccc(OC)c(OC)c2)n1C`, the “hERG current change (%, negative = inhibition) at 10uM” value rises from -5.34% to 7.35%.

Going from `CC(OC(=O)C12CCC(=O)N1c1ccccc1S2)C(=O)Nc1cccc(Cl)c1` (centres unmarked) to `O=C(O)c1cccc(-n2nnnc2SCc2ccccc2Cl)c1`, the “hERG current change (%, negative = inhibition) at 10uM” value rises from -22.9% to 56.5%.

Going from `Cc1noc(C)c1CSc1nnc2sc3ccccc3n12` to `COc1ccccc1N/C(N)=N/c1nc(C)cc(C)n1`, the “hERG current change (%, negative = inhibition) at 10uM” value falls from 7.92% to -32.9%.

Going from `Cc1ccc(-c2csc(=S)n2CC(=O)OCC(=O)NC(C)C(C)C)cc1` (centres unmarked) to `CC(=O)Nc1cccc(Oc2ncnc3scc(-c4ccc(C)cc4)c23)c1`, the “hERG current change (%, negative = inhibition) at 10uM” value rises from 3.12% to 15%.

Going from `CCOc1ccccc1-n1c(=O)c2ccccc2c2ccccc2c1=O` to `O=C1c2cccc(OCC(=O)N3CCCc4ccccc43)c2CCN1Cc1cccnc1`, the “hERG current change (%, negative = inhibition) at 10uM” value falls from -6.99% to -20.9%.

Going from `Cc1cc(C)nc(SC2c3cccc4cccc(c34)C2NS(=O)(=O)c2ccccc2)n1` (centres unmarked) to `O=S(=O)(c1ccccc1)c1nc(-c2ccco2)oc1Nc1ccccc1`, the “hERG current change (%, negative = inhibition) at 10uM” value rises from -4.8% to 0.862%.

Going from `CCN(CC(=O)Nc1ccc2c(c1)OC(F)(F)O2)Cc1nc2ccccc2c(=O)[nH]1` to `O=c1[nH]c(C2CCCCC2)nc2ccccc12`, the “hERG current change (%, negative = inhibition) at 10uM” value rises from -17.5% to -4.46%.

Compared with `COc1ccc(C)cc1S(=O)(=O)NC1CCCCC1`, `CCC(C)(NC(=O)c1ccc2c(c1)OCO2)C(=O)NC1CCCCC1` (centres unmarked) is higher in “hERG current change (%, negative = inhibition) at 10uM” value: -8.76% for the first, -3.56% for the second.

Compared with `S=c1nc(-c2ccc(Br)cc2)oc2c1CCCC2`, `Cc1cccc(NC(=S)NCc2ccc3[nH]c4c(c3c2)CCCC4)c1` is lower in “hERG current change (%, negative = inhibition) at 10uM” value: 27.4% for the first, 13.4% for the second.

First: O=C(COc1cc2oc(=O)cc(-c3ccccc3)c2cc1Cl)NC(Cc1c[nH]c2ccc(O)cc12)C(=O)O (centres unmarked)
Second: CCOc1ccc(CCNC(=O)CCNS(=O)(=O)c2ccc(Br)cc2)cc1OCC
The “hERG current change (%, negative = inhibition) at 10uM” value of the first is higher: 12.6% for the first, -6.28% for the second.

Going from `NC1=NC(=O)/C(=C/c2cccs2)S1` to `CC(C)[NH+]1CCN(C(=O)c2ccc(NC(=O)c3ccc(Br)o3)cc2)CC1.O=C(O)C(F)(F)F`, the “hERG current change (%, negative = inhibition) at 10uM” value falls from 2.73% to -34.5%.
